Consider 1 molecule from patent US20200390902A1, “Antibody-Drug Conjugates Targeted at Human Aspartyl-(Asparaginyl)-B-Hydroxylase (HAAH)” (Panacea Pharmaceuticals, Inc., priority 2017, published 2020).

One experiment has as its target T1, HAAH (Homo sapiens, UniProt Q12797).
T1 construct: endogenous in cells; host or cells: H460 (fixed)
T1 sequence (Q12797 1-758): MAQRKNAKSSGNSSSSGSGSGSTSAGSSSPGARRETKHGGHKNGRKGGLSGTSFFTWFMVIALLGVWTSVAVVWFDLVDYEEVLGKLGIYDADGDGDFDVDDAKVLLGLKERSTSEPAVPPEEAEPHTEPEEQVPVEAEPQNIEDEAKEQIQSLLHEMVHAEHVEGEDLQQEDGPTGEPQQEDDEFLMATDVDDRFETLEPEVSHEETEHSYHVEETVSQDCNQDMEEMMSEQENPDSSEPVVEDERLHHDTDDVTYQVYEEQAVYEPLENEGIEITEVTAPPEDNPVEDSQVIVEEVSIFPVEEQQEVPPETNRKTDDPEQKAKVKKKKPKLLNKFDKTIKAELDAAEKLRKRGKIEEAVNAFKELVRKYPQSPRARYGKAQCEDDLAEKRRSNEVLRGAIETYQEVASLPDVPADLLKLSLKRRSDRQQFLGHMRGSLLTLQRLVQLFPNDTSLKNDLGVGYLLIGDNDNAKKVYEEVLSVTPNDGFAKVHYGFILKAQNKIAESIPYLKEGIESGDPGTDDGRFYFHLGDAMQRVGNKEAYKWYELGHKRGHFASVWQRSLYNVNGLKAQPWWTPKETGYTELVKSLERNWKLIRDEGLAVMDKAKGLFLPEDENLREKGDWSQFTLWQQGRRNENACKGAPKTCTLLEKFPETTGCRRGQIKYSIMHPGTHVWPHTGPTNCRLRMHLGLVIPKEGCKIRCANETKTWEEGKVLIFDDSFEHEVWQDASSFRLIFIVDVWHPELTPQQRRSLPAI
To be noted: live cells; previously shown; read-out: Affinity for HAAH as expressed on live cells; cited from earlier work.

The test system of experiment [1] is HAAH catalytic domain (HAAH-cat). The experiment in a line: Binding to HAAH catalytic domain (HAAH-cat). Also on record: species or system human. To be noted: plates coated with HAAH catalytic domain. The procedure:
The catalytic domain of HAAH (HAAH-cat) is exposed at the surface of HAAH-expressing cancer cells. The binding of SNS622-MC-DM1 at different drug-antibody ratio (DAR) and pH to HAAH-cat was measured using IgG1λ as control. The plates were coated with HAAH by treating with […] HAAH catalytic domain overnight. Following blocking with 1% Non-Fat Dry Milk in PBS for one hour, the plates were incubated for 45 minutes at 37° C. with 11.1 mg/ml IgG1λ; 9.6 mg/ml SNS622; 4.8 mg/ml SNS622-MC-DM1 at DAR 2.5, pH 7.0; 5.9 mg/ml SNS622-MC-DM1 at DAR 2.5, pH8.0; 6.1 mg/ml SNS622-DM1 at DAR 5.0, pH 7.0; 5.7 mg/ml SNS622-MC-DM1 at DAR 5.0, pH8.0; 4.1 mg/ml SNS622-DM1 at DAR 10.0, pH7.0; or 4.4 mg/ml SNS622-MC-DM1 at DAR 10.0, pH8.0. Following 5 PBS rinses the plates were incubated with 1:100 goat anti-human IgG (8)-HRP for 30 minutes at 37° C., Following five PBS rinses TMB substrate was added, and after a 15-minute incubation at room temperature, Stop solution was added to terminate the reactions. The plates were read at 450 nm using a 96-well plate reader (ELx808, BioTek). The binding results are shown below in Table VI

Another experiment concerns the target T2, H460 lysate (Homo sapiens, UniProt Q12797).
T2 construct: A 96-well plate was coated with H460 lysate and dried at room temperature overnight; endogenous in cells; host or cells: H460 lysate (sonicated, supernatant)
T2 sequence (Q12797 1-758): T1 sequence (Q12797 1-758)
Kind of experiment: Binding of naked antibodies and ADCs to H460 lysate. The protocol:
H460 cells were harvested, the cell density was adjusted to 2×10^6 cells/ml with PBS, and the resuspended cells sonicated on ice twice in 30 second pulses. After centrifugation at 300×g for 5 minutes the supernatant was collected and the protein concentration measured using a NANODROP spectrophotometer (ThermoFisher Scientific). A 96-well plate was coated with H460 lysate and dried at room temperature overnight. Following a 1-hour blockage with 1% non-fat dry milk in phosphate buffered saline (PBS), the plates were incubated for 45 minutes at 37° C. with each either 0.5 μg/ml IgG1λ (non-specific monoclonal antibody), IgG1λ-MC-DM1 (non-specific ADC), or SNS622-MC-DM1, or with 5 μg/ml SNS622. Following five PBS rinses to remove un-bound antibody. 1:100 goat anti-human IgG (8)-HRP was added and the plates incubated for 30 minutes at 37° C. Following five PBS rinses TMB substrate was added and, after incubation of the plates for 15 minutes at room temperature. Stop solution was added to terminate the reactions. The plates were read at 450 nm using a 96-well plate reader (ELx808, BioTek).

B1: SNS622: high-affinity, fully-humanized monoclonal antibody against human aspartyl (asparaginyl) beta-hydroxylase; SEQ ID NO: 1 and 2 (antibody)
heavy: QVQLQQSGPGLVKPSQTLSLTCAISGDSVSSNSAAWNWIRQSPSRGLEWLGRTYYRSKWYNDYAVSVKSRITINPDTSKNQFSLQLNSVTPEDTAVYYCARTGYSSSWVVNFDYWGQGTLVTVSSASTKGPSVFPLAPSSKSTSGGTAALGCLVKDYFPEPVTVSWNSGALTSGVHTFPAVLQSSGLYSLSSVVTVPSSSLGTQTYICNVNHKPSNTKVDKRV[human IgG1 Fc left out]
light: QPVLTQSPSASGTPGQRVTISCSGSSSNIGSNYVYWYQQLPGTAPKLLIYKNNQRPSGVPDRFSGSKSGTAASLAISGLQSEDEADYYCAAWDDSLRGYVFGTGTKLTVLGQPKAAPSVTLFPPSSEELQANKATLVCLISDFYPGAVTVAWKADSSPVKAGVETTTPSKQSNNKYAASSYLSLTPEQWKSHRSYSCQVTHEGSTVEKTVAPTECS
modifications: Heavy Chain; Light Chain
B1: in the experiment with HAAH, the Kd is ~1 nM. Moreover, in experiment [1], the “% Binding” value was ~98% and the “[Average]* (mg/ml) bound” value stood at 9.32 mg/mL. Moreover, in the experiment with H460 lysate (percent of loading amount bound), the Percent binding was determined as 92%. Moreover, in the experiment with H460 lysate (sonicated H460 (2E^6 cells/ml), loading 5.0 or 0.5 μg/ml), the Binding amount came out at 0.46 µg/mL.
